For one test, the system named is HSkMC. The test can be described thus: cytotoxicity call (relative viability < 0.9). The following applies: 10 µM.
Another test relates to HepG2. The test can be described thus: cytotoxicity call (relative viability < 0.9). The following applies: 10 µM.
The test system of the next test is S. aureus RN4220. As to the kind of experiment: growth inhibition call (relative growth <= 0.2). The following applies: 50 µM.

This is one part of the list.

We go through 24 molecules from the antibiotic and cytotoxicity screens of Wong et al. (2023).

Take `Cc1noc(C)c1NC(=O)N(C)C[C@H]1Oc2ncc(C#CCC(C)C)cc2C(=O)N([C@H](C)CO)C[C@H]1C`: the cytotoxicity call in the test on HSkMC and with HepG2 was “inactive” throughout. The growth inhibition call in the test with S. aureus RN4220 is “inactive”.

For `COc1ccc(S(=O)(=O)N(C)C[C@H]2Oc3cc(-c4ccccc4OC)ccc3S(=O)(=O)N([C@H](C)CO)C[C@H]2C)cc1`, the cytotoxicity call with HSkMC was “inactive”. The cytotoxicity call in the test on HepG2 is “active”. Moreover, in the test with S. aureus RN4220, the growth inhibition call is “inactive”.

Take `Cc1noc(C)c1S(=O)(=O)Nc1cccc2c1O[C@@H](CN(C)Cc1ccc(-c3ccccc3)cc1)[C@@H](C)CN([C@@H](C)CO)C2=O`: the cytotoxicity call with HSkMC and in the test with HepG2 was “inactive” throughout. Moreover, the growth inhibition call in the test with S. aureus RN4220 was “inactive”.

Turning to `C[C@@H]1CCCCO[C@@H](CN(C)C(=O)Cc2ccccc2)[C@@H](C)CN([C@H](C)CO)C(=O)c2cc(NC(=O)Nc3ccc(F)cc3)ccc2O1`, the cytotoxicity call with HSkMC and with HepG2 was “inactive” each time. Besides, in the test with S. aureus RN4220, the growth inhibition call was “inactive”.

As to `Cn1c(=O)c2c(ncn2CC(=O)N2CCN(C(=O)c3ccco3)CC2)n(C)c1=O`, the cytotoxicity call with HSkMC and in the test with HepG2 was “inactive” throughout. Further, the growth inhibition call in the test with S. aureus RN4220 was “inactive”.

As to `C[C@@H]1CN([C@@H](C)CO)C(=O)c2cc(NS(=O)(=O)c3ccc(Cl)cc3)ccc2O[C@@H](C)CCCCO[C@@H]1CN(C)Cc1ccncc1`, the cytotoxicity call with HSkMC and in the test with HepG2 was “inactive” in each case. Moreover, the growth inhibition call in the test on S. aureus RN4220 is “inactive”.

Take `C[C@H](CO)N1C[C@H](C)[C@H](CN(C)Cc2cccc(C(F)(F)F)c2)OCc2ccccc2-c2c(n(C)c3ccccc23)C1=O`: the cytotoxicity call with HSkMC is “active”. For the same molecule, in the test on HepG2, the cytotoxicity call is “inactive”. In addition, the growth inhibition call with S. aureus RN4220 was “inactive”.

Take `Cc1cc(OCc2nnc(SC3CCCC3)n2-c2cccnc2)ccc1-c1ccc(S(C)(=O)=O)cc1`: the cytotoxicity call with HSkMC and with HepG2 was “active” each time. In addition, in the test with S. aureus RN4220, the growth inhibition call was “inactive”.

With `COc1ccc(C#Cc2ccc3c(c2)O[C@@H](CN(C)S(=O)(=O)c2ccccc2F)[C@H](C)CN([C@@H](C)CO)S3(=O)=O)cc1`, the cytotoxicity call in the test on HSkMC and with HepG2 was “inactive” each time. In addition, the growth inhibition call in the test on S. aureus RN4220 was “inactive”.

Take `Cc1ccc(S(=O)(=O)N(C)C[C@H]2OCCCC[C@@H](C)Oc3ccc(NC(=O)Nc4ccccc4)cc3C(=O)N([C@H](C)CO)C[C@H]2C)cc1`: the cytotoxicity call in the test with HSkMC and in the test with HepG2 was “inactive” throughout. For the same molecule, the growth inhibition call in the test with S. aureus RN4220 was “inactive”.

For `C[C@H]([C@@H](N)C(=O)N[C@H](C(=O)O)[C@H]1O[C@@H](n2ccc(O)cc2=O)[C@@H](O)[C@H]1O)[C@@H](C)c1ccc(O)cn1`, the cytotoxicity call in the test on HSkMC and with HepG2 was “inactive” in each case. For the same molecule, in the test with S. aureus RN4220, the growth inhibition call is “inactive”.

`C[C@H]1CN([C@@H](C)CO)C(=O)Cc2cc(NC(=O)Cn3cnnn3)ccc2O[C@H]1CN(C)Cc1ccc(C(F)(F)F)cc1`: the cytotoxicity call in the test on HSkMC and with HepG2 was “inactive” each time. Also, in the test on S. aureus RN4220, the growth inhibition call is “inactive”.

Turning to `COc1ccc(NC(=O)Nc2ccc3c(c2)C(=O)N([C@H](C)CO)C[C@H](C)[C@H](CN(C)C(=O)Nc2ccc(F)cc2)OCCCC[C@@H](C)O3)cc1`, the cytotoxicity call with HSkMC and in the test with HepG2 was “inactive” throughout. Further, in the test on S. aureus RN4220, the growth inhibition call was “inactive”.

Regarding `NC(=O)c1nnn(Cc2ccccc2)c1N`, the cytotoxicity call with HSkMC and with HepG2 was “inactive” throughout. In the test on S. aureus RN4220, the growth inhibition call is “inactive”.

With `COCC#Cc1cnc2c(c1)C(=O)N([C@@H](C)CO)C[C@H](C)[C@H](CN(C)C(=O)c1ccc3c(c1)OCO3)O2`, the cytotoxicity call in the test on HSkMC and with HepG2 was “inactive” throughout. In the test on S. aureus RN4220, the growth inhibition call was “inactive”.

On to `Cc1ccc(S(=O)(=O)Nc2ccc3c(c2)C(=O)N(C)[C@H]2CC[C@H](CC(=O)NCCc4ccncc4)O[C@@H]2CO3)cc1`, for which the cytotoxicity call with HSkMC and in the test with HepG2 was “inactive” each time. Further, the growth inhibition call with S. aureus RN4220 was “inactive”.

Regarding `Cc1noc(C)c1NC(=O)N(C)C[C@H]1Oc2ccc(NC(=O)Nc3cccc4ccccc34)cc2C(=O)N([C@@H](C)CO)C[C@@H]1C`, the cytotoxicity call with HSkMC and in the test with HepG2 was “inactive” throughout. Also, the growth inhibition call in the test on S. aureus RN4220 was “inactive”.

Take `C[C@@H]1CN([C@H](C)CO)C(=O)c2cc(NC(=O)Nc3ccc4c(c3)OCO4)ccc2O[C@@H](C)CCCCO[C@@H]1CN(C)Cc1ccc(C(F)(F)F)cc1`: the cytotoxicity call in the test with HSkMC and in the test on HepG2 was “inactive” throughout. Besides, the growth inhibition call in the test with S. aureus RN4220 was “inactive”.

Regarding `C[C@H](CO)N1C[C@H](C)[C@H](CN(C)C(=O)Nc2ccc(F)cc2)OCCCC[C@H](C)Oc2ccc(NS(=O)(=O)c3ccc(Cl)cc3)cc2C1=O`, the cytotoxicity call in the test on HSkMC is “inactive”. Moreover, the cytotoxicity call with HepG2 is “active”. Besides, in the test with S. aureus RN4220, the growth inhibition call was “inactive”.

As for `COCC(=O)N1CC(=O)N2[C@H](CO)[C@@H](c3ccc(C#Cc4cccnc4)cc3)[C@@H]2C1`, the cytotoxicity call in the test on HSkMC (human skeletal muscle cells) and in the test on HepG2 was “inactive” throughout. Moreover, in the test on S. aureus RN4220, the growth inhibition call is “inactive”.

Regarding `C[C@@H]1CN([C@H](C)CO)C(=O)c2cc(C#Cc3ccc(F)cc3)cnc2O[C@H]1CN(C)CC1CCOCC1`, the cytotoxicity call in the test with HSkMC and in the test on HepG2 was “inactive” each time. In addition, the growth inhibition call in the test on S. aureus RN4220 is “inactive”.

On to `C[C@H]1CCCCO[C@@H](CN(C)S(=O)(=O)c2ccc(F)cc2)[C@@H](C)CN([C@@H](C)CO)C(=O)c2cc(NC(=O)NC3CCCCC3)ccc2O1`, for which the cytotoxicity call with HSkMC and in the test on HepG2 was “inactive” throughout. Besides, the growth inhibition call in the test with S. aureus RN4220 is “inactive”.

Regarding `Cc1noc(C)c1S(=O)(=O)Nc1ccc2c(c1)C(=O)N([C@@H](C)CO)C[C@H](C)[C@@H](CN(C)C(=O)Nc1ccccc1)OCCCC[C@@H](C)O2`, the cytotoxicity call with HSkMC and with HepG2 was “inactive” in each case. Further, in the test with S. aureus RN4220, the growth inhibition call was “inactive”.

`CO[C@H]1O[C@H](CO)[C@@H](OC(=O)Nc2cccc(F)c2)[C@H](OC(=O)Nc2ccccc2-c2ccccc2)[C@@H]1OC(=O)Nc1ccccc1-c1ccccc1`: the cytotoxicity call in the test with HSkMC is “active”. In the test on HepG2, the cytotoxicity call was “inactive”. The growth inhibition call in the test on S. aureus RN4220 is “inactive”.
